Experimental data reported in PMC4336329 (PLoS ONE, 2015).
The campaign covered roughly 310,000 compounds. About 14,000 (4.5%) showed an effect of 50% or more. The effect is printed as a negative number. This is one part of the list.

target: human ether-à-go-go-related gene (hERG) potassium channel (human, UniProt Q12809); assay: primary screen, population patch clamp on CHO cells stably expressing hERG
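Note: peak tail current of the secondary pulse compared with the same well before compound.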

Chain of human ether-à-go-go-related gene (hERG) potassium channel (Q12809 whole entry, looked up): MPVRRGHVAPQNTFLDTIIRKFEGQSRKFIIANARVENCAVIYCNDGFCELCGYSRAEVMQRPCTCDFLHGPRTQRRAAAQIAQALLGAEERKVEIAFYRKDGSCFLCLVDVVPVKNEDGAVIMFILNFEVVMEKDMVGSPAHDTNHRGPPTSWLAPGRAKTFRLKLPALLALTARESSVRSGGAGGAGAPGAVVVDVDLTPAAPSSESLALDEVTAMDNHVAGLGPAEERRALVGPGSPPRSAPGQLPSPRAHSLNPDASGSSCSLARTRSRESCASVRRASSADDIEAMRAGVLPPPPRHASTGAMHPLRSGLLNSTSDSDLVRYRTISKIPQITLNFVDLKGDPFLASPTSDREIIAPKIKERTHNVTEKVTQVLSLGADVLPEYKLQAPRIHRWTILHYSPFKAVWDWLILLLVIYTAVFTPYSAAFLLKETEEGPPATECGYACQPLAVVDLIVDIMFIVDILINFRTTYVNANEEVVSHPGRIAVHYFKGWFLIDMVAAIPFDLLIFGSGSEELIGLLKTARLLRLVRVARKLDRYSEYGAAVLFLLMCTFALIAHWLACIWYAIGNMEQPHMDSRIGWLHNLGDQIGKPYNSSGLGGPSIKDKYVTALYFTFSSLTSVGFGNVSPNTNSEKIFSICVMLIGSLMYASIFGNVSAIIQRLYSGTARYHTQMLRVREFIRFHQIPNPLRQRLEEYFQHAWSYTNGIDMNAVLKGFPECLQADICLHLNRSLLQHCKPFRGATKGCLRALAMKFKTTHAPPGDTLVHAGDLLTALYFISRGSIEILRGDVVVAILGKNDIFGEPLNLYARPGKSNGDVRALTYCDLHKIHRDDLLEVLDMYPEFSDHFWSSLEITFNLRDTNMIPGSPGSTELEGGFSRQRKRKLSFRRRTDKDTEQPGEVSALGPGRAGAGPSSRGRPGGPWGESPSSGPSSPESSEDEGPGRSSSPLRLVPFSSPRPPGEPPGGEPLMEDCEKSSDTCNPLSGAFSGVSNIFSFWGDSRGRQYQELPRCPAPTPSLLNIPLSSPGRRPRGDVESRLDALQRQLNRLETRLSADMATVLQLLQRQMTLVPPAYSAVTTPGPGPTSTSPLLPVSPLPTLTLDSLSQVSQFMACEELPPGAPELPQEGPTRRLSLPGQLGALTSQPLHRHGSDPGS

Question: With `COC(=O)c1ccc(Nc2c([N+](=O)[O-])c(=O)oc3ccccc23)cc1` as the molecule, how does the “hERG current change (%, negative = inhibition) at 10uM” value read?
Answer: 16.9%

Question: How did the “hERG current change (%, negative = inhibition) at 10uM” value turn out when `CCn1c(SCC(=O)NC2CCCC2)nnc1C(C)NC(=O)c1ccccc1Br` (centres unmarked) was run?
Answer: 21.1%

Question: For `Cn1cccc1Cc1nnc(SCC(=O)NC2CCCC2)n1-c1ccc(F)cc1`, which “hERG current change (%, negative = inhibition) at 10uM” value is on record?
Answer: -19%

Question: With `O=C(Nc1ccc(S(=O)(=O)Nc2ncccn2)cc1)c1ccc(Br)o1` as the molecule, how does the “hERG current change (%, negative = inhibition) at 10uM” value read?
Answer: 12.3%

Question: With `Cc1ccc(C(=O)CCC(=O)N2CCN(c3ccccc3O)CC2)cc1` as the molecule, how does the “hERG current change (%, negative = inhibition) at 10uM” value read?
Answer: 5.17%

Question: `CCOC(=O)Cn1nc(C)c(NC(=O)COc2ccc([N+](=O)[O-])c(C)c2)c1C` was tested. Which “hERG current change (%, negative = inhibition) at 10uM” value did it give?
Answer: -6.24%

Question: Which “hERG current change (%, negative = inhibition) at 10uM” value does the source give for `CCCN(CC(=O)Nc1ccccc1C)C(=O)C1CCN(C(=O)Nc2ccccc2)CC1` here?
Answer: -34.9%

Question: With `CC1(C)CC(=O)c2sc(NC(=O)C(C)(C)C)nc2C1` as the molecule, how does the “hERG current change (%, negative = inhibition) at 10uM” value read?
Answer: -3.28%

Question: For `CC(NC(=O)CNC(=O)C1CCCCC1)c1ccc(S(N)(=O)=O)cc1` (centres unmarked), which “hERG current change (%, negative = inhibition) at 10uM” value is on record?
Answer: 11.5%

Question: For `CCOC(=O)CC1COc2ccccc2N1C(=O)c1ccc(C)cc1` (centres unmarked), which “hERG current change (%, negative = inhibition) at 10uM” value is on record?
Answer: -8.45%

Question: Which “hERG current change (%, negative = inhibition) at 10uM” value does the source give for `O=C(NCCO)/C(=C/c1ccc2c(c1)OCO2)NC(=O)c1ccc(Br)cc1` here?
Answer: -69.5%

Question: With `CC(C)Oc1ccc(C(=O)Nc2ccc(NC(=O)c3ccco3)c(Cl)c2)cc1` as the molecule, how does the “hERG current change (%, negative = inhibition) at 10uM” value read?
Answer: 6.31%

Question: Which “hERG current change (%, negative = inhibition) at 10uM” value does the source give for `COc1ccc(Cn2c(=O)oc3ccccc32)cc1F` here?
Answer: 13.4%

Question: `Cc1ccc(-n2c(O)c(/C=N/n3cnnc3)c3ccccc3c2=O)cc1` [14745934] was tested. Which “hERG current change (%, negative = inhibition) at 10uM” value did it give?
Answer: 4.8%

Question: `CCOc1ccc2c(c1)C(C)=CC(C)(C)N2S(=O)(=O)c1ccc(NC(C)=O)cc1` was tested. Which “hERG current change (%, negative = inhibition) at 10uM” value did it give?
Answer: 10%

Question: Which “hERG current change (%, negative = inhibition) at 10uM” value does the source give for `Cc1ccc(NC(=S)NCC(C)C)cc1` here?
Answer: 21.1%

Question: Which “hERG current change (%, negative = inhibition) at 10uM” value does the source give for `O=C(NCC1CCCO1)c1ccccc1-c1nc(-c2ccccc2Cl)no1` (centres unmarked) here?
Answer: -12.5%

Question: For `O=C(CNC(=O)C1COc2ccccc2O1)N/N=C/c1cc(Br)c(O)c(Br)c1` (centres unmarked), which “hERG current change (%, negative = inhibition) at 10uM” value is on record?
Answer: -7.99%

Question: With `Nc1n[nH]c(-c2ccccc2)c1-c1ccccc1` as the molecule, how does the “hERG current change (%, negative = inhibition) at 10uM” value read?
Answer: -10.3%

Question: `Cc1cccnc1NC(=O)c1ccc(Cl)c(S(=O)(=O)N2CCCCC2)c1` was tested. Which “hERG current change (%, negative = inhibition) at 10uM” value did it give?
Answer: -21.7%

Question: How did the “hERG current change (%, negative = inhibition) at 10uM” value turn out when `O=C(CN1CCCC1)Nc1cccc(Cl)c1Cl` was run?
Answer: 17.1%

Question: For `Cc1[nH]n(-c2ccccc2)c(=O)c1-c1ccccc1`, which “hERG current change (%, negative = inhibition) at 10uM” value is on record?
Answer: -7.81%

Question: For `Cc1nc(SCC(=O)Nc2ccc(N3CCOCC3)cc2)nc(C)c1C`, which “hERG current change (%, negative = inhibition) at 10uM” value is on record?
Answer: -2.45%

Question: For `CC(=O)c1cccc(NC(=S)N2CCN(S(C)(=O)=O)CC2)c1`, which “hERG current change (%, negative = inhibition) at 10uM” value is on record?
Answer: 16.8%

Question: `Cc1cc(C)n(CC(=O)NC2CCCc3c2cnn3-c2ccc(C)c(C)c2)n1` (centres unmarked) was tested. Which “hERG current change (%, negative = inhibition) at 10uM” value did it give?
Answer: -1.49%

Question: `CCC1(CC)NC(=O)N(CC(=O)OCC(=O)NC(=O)c2ccccc2)C1=O` was tested. Which “hERG current change (%, negative = inhibition) at 10uM” value did it give?
Answer: 5.41%

Question: `CCOCC(=O)Nc1ccc(S(=O)(=O)NCC2CCCO2)cc1` (centres unmarked) was tested. Which “hERG current change (%, negative = inhibition) at 10uM” value did it give?
Answer: 18.5%

Question: For `CC(C)(C)C1=Nn2c(nnc2-c2ccccn2)SC1`, which “hERG current change (%, negative = inhibition) at 10uM” value is on record?
Answer: 1.15%

Question: Which “hERG current change (%, negative = inhibition) at 10uM” value does the source give for `CCOC(=O)C1CCN(S(=O)(=O)c2cccc(-c3cn4cc(Cl)ccc4n3)c2)CC1` here?
Answer: -58%

Question: Which “hERG current change (%, negative = inhibition) at 10uM” value does the source give for `COc1ccccc1-n1ccnc(SCC(=O)NC2CCCC2)c1=O` here?
Answer: 6.92%

Question: How did the “hERG current change (%, negative = inhibition) at 10uM” value turn out when `C=CCCC(=O)N1CCCC(Cc2cccc(Cl)c2)(C(=O)OCC)C1` (centres unmarked) was run?
Answer: -7%

Question: For `CC(C)C(C(=O)NCC1CCCO1)N(CC1CCCO1)C(=O)CNS(=O)(=O)c1ccccc1` (centres unmarked), which “hERG current change (%, negative = inhibition) at 10uM” value is on record?
Answer: 22.2%

Question: `CC1CCc2sc(C(=O)NCC(c3ccco3)N3CCCCC3)cc2C1` (centres unmarked) was tested. Which “hERG current change (%, negative = inhibition) at 10uM” value did it give?
Answer: -30.8%

Question: With `N#CCCn1c2ccccc2c2nc3ccccc3nc21` as the molecule, how does the “hERG current change (%, negative = inhibition) at 10uM” value read?
Answer: 9.13%

Question: For `COc1ccc(NC(=O)c2nn(C)c3c2CS(=O)(=O)c2ccccc2-3)cc1`, which “hERG current change (%, negative = inhibition) at 10uM” value is on record?
Answer: 20.7%

Question: With `CSc1ncccc1C(=O)OCC(=O)N1CCN(S(=O)(=O)c2ccc(C)cc2C)CC1` as the molecule, how does the “hERG current change (%, negative = inhibition) at 10uM” value read?
Answer: 35.8%

Question: Which “hERG current change (%, negative = inhibition) at 10uM” value does the source give for `O=C(Nc1ccccc1NC(=O)NC1CCCCC1)NC1CCCCC1` here?
Answer: 0.961%

Question: For `Cc1ccc2nc(NCCCO)nc(-c3ccccc3)c2c1`, which “hERG current change (%, negative = inhibition) at 10uM” value is on record?
Answer: -18.4%

Question: With `Cc1occc1-c1nnc(SCC(N)=O)n1Cc1ccccc1` as the molecule, how does the “hERG current change (%, negative = inhibition) at 10uM” value read?
Answer: 3.5%

Question: For `Cc1ccc(S(=O)(=O)N2CCCCC2)cc1C(=O)NCC1CCCO1` (centres unmarked), which “hERG current change (%, negative = inhibition) at 10uM” value is on record?
Answer: -2.05%

Question: How did the “hERG current change (%, negative = inhibition) at 10uM” value turn out when `COc1ccccc1-c1nn2c(=O)cc(C)nc2s1` was run?
Answer: -0.259%

Question: `C[N+]1(CC(O)COCC2COc3ccccc3O2)CCOCC1.[I-]` (centres unmarked) was tested. Which “hERG current change (%, negative = inhibition) at 10uM” value did it give?
Answer: 18.3%

Question: How did the “hERG current change (%, negative = inhibition) at 10uM” value turn out when `CC(C(=O)NC1CCS(=O)(=O)C1)N1C(=O)/C(=C/c2ccc(Cl)cc2)SC1=S` (centres unmarked) was run?
Answer: -0.544%

Question: For `CC(=O)Nc1ccc(S(=O)(=O)N2CCSC2c2ccc(Cl)cc2)cc1` (centres unmarked), which “hERG current change (%, negative = inhibition) at 10uM” value is on record?
Answer: 4.1%

Question: Which “hERG current change (%, negative = inhibition) at 10uM” value does the source give for `CC(C)OCCCn1c(SCC(=O)Nc2ccccc2C(F)(F)F)nc2nccnc2c1=O` here?
Answer: 8.08%

Question: `CC(C)CCNC(=O)c1cc([N+](=O)[O-])ccc1N1CCOCC1` was tested. Which “hERG current change (%, negative = inhibition) at 10uM” value did it give?
Answer: -17.1%

Question: How did the “hERG current change (%, negative = inhibition) at 10uM” value turn out when `Cc1cccc(NC(=O)CSc2nnc(CCNC(=O)OC(C)(C)C)o2)c1C` was run?
Answer: 12.2%

Question: `COCCCNC(=O)CNC(=O)c1cn(-c2ccccc2OC)c(=O)c2ccccc12` was tested. Which “hERG current change (%, negative = inhibition) at 10uM” value did it give?
Answer: -1.56%

Question: With `Cc1cc(S(=O)(=O)Cc2noc(-c3c(C)noc3C)n2)c(C)cc1Cl` as the molecule, how does the “hERG current change (%, negative = inhibition) at 10uM” value read?
Answer: -7.48%

Question: For `CCC1Oc2ccccc2N(CC(=O)NC2CC2)C1=O` (centres unmarked), which “hERG current change (%, negative = inhibition) at 10uM” value is on record?
Answer: 14.8%

Question: How did the “hERG current change (%, negative = inhibition) at 10uM” value turn out when `COc1ccc(/C=C2/CCc3ccccc3C2=O)cc1CN1CCOCC1` was run?
Answer: -59.6%

Question: `CSc1nnc(-c2ccc(NC(=O)CCc3ccccc3)cc2)n1C` was tested. Which “hERG current change (%, negative = inhibition) at 10uM” value did it give?
Answer: 8.36%

Question: With `O=C(Nc1ccccc1N1CCCCC1)c1ccccc1F` as the molecule, how does the “hERG current change (%, negative = inhibition) at 10uM” value read?
Answer: -14.5%

Question: How did the “hERG current change (%, negative = inhibition) at 10uM” value turn out when `CCCCCCOc1ccc(N2C(=O)CC(N(CCc3ccc(S(N)(=O)=O)cc3)C(C)=O)C2=O)cc1` (centres unmarked) was run?
Answer: 8.24%

Question: How did the “hERG current change (%, negative = inhibition) at 10uM” value turn out when `COc1ccc2[nH]c(=O)c(CNc3cc(C)ccc3C)cc2c1` was run?
Answer: -1.5%

Question: With `O=C(CSc1ncccn1)N/N=C/c1cccc(OC2CSC2)c1` as the molecule, how does the “hERG current change (%, negative = inhibition) at 10uM” value read?
Answer: -10.1%
